Reference: PubChem BioAssay AID1508624 (National Center for Advancing Translational Sciences (NCATS), 2021)
The campaign covered roughly 48,000 compounds. About 120 (0.25%) were called active. Roughly 4% stayed inconclusive and do not appear here. The call rests on the fitted dose curve; in most records, active means well fitted activation curve with a large enough effect; inconclusive means small, poorly fitted or top-dose-only effect, or another doubt; inactive means no such curve, though single readings can be large or run the other way. The list shows a part of the results.

Assay: Primary qHTS for Identification of Small Molecule Activators of Huntingtin-Antisense Promoter Activity; further: nearly all actives have a fitted effect of over 55% in size
Conditions: HEK293 HTT-AS promoter firefly luciferase reporter, 24 h; series mostly up to 57.5 µM; activity change, positive = activation: at the top concentration
Method in brief: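 Firefly luciferase signal from promoter-reporter HEK293 cells was scaled between vehicle (0%) and zero RLU (-100%). Compounds were tested at final concentrations of up to 57.5 uM over 24 h at 37 degrees C. PTC124 at 50 uM final served as control inhibitor.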

Activity change, positive = activation, inactive:
CN1CCC(OC(c2ccccc2)c2ccccc2)CC1 -8.25%
O=C(CSCn1nnc2c(=O)[nH]c(Cc3ccc(F)cc3)nc21)Nc1cccc(C(F)(F)F)c1 -11.7%
CC(=O)Nc1ccc(NC(=O)CCCn2nc(C)c3sc4ccccc4c3c2=O)cc1 -0.76%
CCOc1ccc(N(C)S(=O)(=O)c2ccc3c(c2)CCCN3C(C)=O)cc1 -20.6%
COc1cc2c(cc1OC)C(COc1cccc(C(F)(F)F)c1)N(C(=O)c1ccc(S(=O)(=O)N3CCCC3)cc1)CC2 (stereo unspecified) -14.3%
CCC(C)NC(=O)C1CCN(S(=O)(=O)c2ccc3c(c2)CCCN3C(C)=O)CC1 (stereo unspecified) -7.6%
CCc1ccccc1NC(=O)C(=O)NCCCN1CCOCC1 -10%
Cc1c(C(=O)Nc2nc(-c3ccc(F)cc3)ns2)oc2ccc(Cl)cc12 -2.87%
Cc1ccc(CCNC(=O)CS(=O)Cc2nc(-c3ccccc3Cl)oc2C)cc1 (stereo unspecified) -9.02%
O=C(Cc1ccccc1)Nc1sc2c(c1C(=O)Nc1ccc(Br)cc1)CCC2 -14.8%
Cc1ccc2oc(C(=O)Nc3cccc(Cl)c3)cc(=O)c2c1 -8.5%
COc1ccccc1C(=O)Nc1ccccc1OCc1cc(=O)n2ccccc2n1 0.436%
O=C(CS)Nc1ccccc1 -23.7%
C/C=C1\[C@H]2C=C(C)C[C@]1(N)c1ccc(=O)[nH]c1C2 -2.38%
O=C(Nc1ccc(F)cc1)c1csc2c1CCCCC2 -95%
COc1cccc(N2CC(NC(=O)c3ccc(S(=O)(=O)N4CCOCC4)cc3)CC2=O)c1 (stereo unspecified) -11.2%
O=C(NCCc1ccccc1)c1nc(-c2ccc(Cl)cc2)n2c1CCCCC2 -31.2%
COc1ccc(CNc2nc3c(-c4ccccc4)nnn3c3ccccc23)cc1 -1.7%
O=C(c1cnn(-c2ccc(F)cc2)c1-n1cccc1)N1CCN(c2ccc(F)cc2)CC1 -21.6%
CCNc1nc(NCc2ccc(F)cc2)c2cnn(C)c2n1 -30.7%
CC1=C(C(=O)Nc2cccc(Cl)c2C)C2(CCCCCC2)OC1=O -18.8%
CC1CCN(S(=O)(=O)c2ccc3c(c2)CCN3)CC1 -8.3%
O=c1[nH]cnc2[nH]ncc12
COc1ccccc1Nc1sc(C(=O)c2ccc(C)cc2C)c(N)c1S(=O)(=O)c1ccccc1 -20.4%
CCc1ccc(S(=O)(=O)c2nnn3c2nc(Nc2cc(OC)ccc2OC)c2sccc23)cc1 -4.79%
O=S(=O)(NCCS(=O)(=O)N1CCN(c2ccccc2)CC1)c1ccc(Br)cc1 0.883%
Cc1ccc(C(=O)Nc2cc3c(cc2C)n(C)c(=O)c(=O)n3C)cc1 -5.79%
Cc1cc(O)c2c(c1)C(=O)c1cc(O)cc(O)c1C2=O -1.17%
CCOC(=O)c1c(-c2ccccc2)oc2ccc(NS(=O)(=O)c3cc(C)c(C)cc3C)cc12 7.65% [at 11.5 µM, percent change from vehicle, -100% = no light]
CCOc1ccccc1CN1CCN(S(=O)(=O)c2ccccc2)CC1 -1.87%
Cc1ccccc1NC(=O)c1ccc2c(c1)c(C)c(C)n2Cc1ccccc1 -21.8%
CC(=O)c1cccc(NC(=O)c2oc3c(c2C)-c2nn(Cc4ccc(Cl)cc4)cc2CC3)c1 -31.2%
O=C(CN1N=C(c2ccc(Cl)cc2)CCC1=O)NCCc1ccc(Cl)cc1 -22.3%
COCc1nc2ccccc2n1CCOc1cccc(C)c1 -13.4%
COc1ccc(S(=O)(=O)N2CCCN(CC(=O)Nc3ccc(NC(C)=O)cc3)CC2)cc1 6.16% [at 11.5 µM, percent change from vehicle, -100% = no light]
Cc1ccc(NC(=O)CN2C(=O)CCc3cc(S(=O)(=O)N4CCOCC4)ccc32)cc1F -12.2%
COc1ccc(OC)c(CNC(=O)c2ccc(Sc3ccc(C)cc3)c(N)c2)c1 -43.5%
Cn1cc(-c2ccc3nnc(Sc4ccc5ncccc5c4)n3n2)cn1 2.2%
CCc1ccc(-n2nc(C)c3c(C)cc(=O)n(Cc4nc(-c5ccccc5)oc4C)c32)cc1 -1.45%
COc1ccc(NC(=O)c2oc3ccc(S(=O)(=O)N4CCCCC4)cc3c2C)cc1 -60.8%
CCOc1ccc(CNC(=O)C2Cc3ccccc3N2C(=O)CC)cc1OC (stereo unspecified) -8.48%
CCCc1nn2c(=O)cc(COC(=O)c3ccccc3NC(=O)COc3ccccc3F)nc2s1 -12.6%
Cc1cccc(CNC(=O)CCn2c(=O)c3cccn3c3ccc(F)cc32)c1 -1.62%
Cc1nc2c(C(=O)NCCCN(CC(C)C)CC(C)C)cnn2c(C)c1Cc1c(F)cccc1Cl -21.4%
CCCOC(=O)c1c(NC(=O)c2nc3ncccn3n2)sc(C(N)=O)c1C 3.07%
Cc1cc(C)cc(OCC(=O)Nc2c(C)ccc3nsnc23)c1 5.89%
COc1ccc(S(=O)(=O)c2cnc3ccc(Cl)cc3c2N2CCCCC2C)cc1 (stereo unspecified) -25.2%
Cc1ccccc1NC(=O)CSc1nc2nccnc2c(=O)n1CCc1c[nH]c2ccccc12 -12.8%
CCOc1ccc(N(CC)S(=O)(=O)c2cc(Br)cc3c2N(C(C)=O)C(C)C3)cc1 (stereo unspecified) -24.5%
COc1ccc(NC(=O)CSc2nc(-c3ccco3)cc(C(F)(F)F)n2)cc1OC -91.5%
CN(Cc1ccccc1)S(=O)(=O)c1nnc(NC(=O)c2cccc(Cl)c2)s1 -30.5%
Cc1cccc(N2CCN(C(=O)Cn3nc(C)n4cccc4c3=O)CC2C)c1 (stereo unspecified) -2.49%
CCCCN(C)CCCNC(=O)Cn1ncc2c3ccccc3n(Cc3ccccc3)c2c1=O -6.41%
Cc1cccc(NC(=O)CSc2nccn2Cc2ccc(F)cc2)c1C -2.04%
CCOC(=O)c1ccc2c(c1)N(CC(=O)N(C)c1ccccc1)C(=O)c1ccccc1S2 -30.9%
COc1ccccc1NC(=O)c1cc(=O)c2ccc(C)c(C)c2o1 26.9% [at 11.5 µM, percent change from vehicle, -100% = no light]
COc1ccc(-c2cn(-c3ccc(C)cc3)c(S(=O)(=O)CC(=O)Nc3ccc(F)cc3)n2)cc1 -3.53%
Cc1ccc(Cc2c(C)nc3nc(SCC(=O)NC4CCC(C)CC4)nn3c2C)cc1 (stereo unspecified) -17.6%
CCOc1ccc(CCNC(=O)c2cc3c(=O)oc4ccc(C)cc4c3s2)cc1OCC -8.8%
N#C/C(=C\c1ccc(-c2ccc(C(=O)O)cc2)o1)C(=O)Nc1ccccc1C(=O)O -19.3%
Cc1nn(CCC(=O)Nc2cc(F)ccc2F)c(=O)c2nn(-c3ccccc3)c(C)c12 -6.62%
CC1CCCCN1C(=O)CSc1n[nH]c(-c2ccccc2Cl)n1 (stereo unspecified) 13.7%
O=C(CC1N=C2c3ccccc3N=C(SCc3cccc(Cl)c3)N2C1=O)NCc1ccc2c(c1)OCO2 (stereo unspecified) -40.4%
COc1cc(Nc2nc(SCC(=O)c3ccc(Br)cc3)nc3ccccc23)cc(OC)c1 -32.7%
COc1cccc(CNCCNC(=O)c2nonc2N)c1 -10.3%
COC(=O)c1ccc2c(C(=Nc3ccc(N(C)C(=O)CN4CCN(C)CC4)cc3)c3ccccc3)c(O)[nH]c2c1 -24.4%
Cc1cccc(NS(=O)(=O)c2c(C)nc3sccn3c2=O)c1C -28.9%
O=C(NCc1ccccc1Cl)c1cc2c(s1)-c1ccc(Cl)cc1SC2 -0.0486%
CCSc1nc2c([nH]c3ccccc32)c(=O)n1CC -6.11%
CCOc1ccccc1NC(=O)N1CC(CC)Oc2ccccc21 (stereo unspecified) -26.3%
Cc1ccc(C(=O)CSc2nc(-c3ccccc3)nc3c2CCCC3)cc1 -13.6%
CCOC(=O)CSc1nc(-c2ccc(C)cc2C)cc(-c2ccccc2)c1C#N -11.8%
COc1cccc(-n2c(=O)c3c(C)c(C)sc3n(CC(=O)NCc3ccc(C)cc3)c2=O)c1 14.4%
Cc1cccc(CSc2ncc(Cl)c(C(=O)Nc3sc4c(c3C(N)=O)CCCC4)n2)c1 -6.2%
O=C(Cn1c(=O)nc(-c2ccccc2)c2ccccc21)Nc1cccc(C(F)(F)F)c1 -11.2%
Cc1c(C(=O)NCc2cccc(Cl)c2)sc2ncnc(N(C)C3CCCCC3)c12 -29.3%
COc1ccc(C2Nc3ccccc3-c3cc(C)nn32)cc1OC (stereo unspecified) -9.5%
COc1ccc(CNC(=O)CCCN2C(=O)CSc3c2c(C)nn3-c2ccccc2)cc1 -18.2%
COC(=O)c1cc2sc(C)cc2n1Cc1cccc(OC)c1 -31.8%
CCOC(=O)c1c(-c2ccc(OC)cc2)oc2ccc(OCc3ccccc3C)cc12 -7.9%
CN(C/C=C/C#CC(C)(C)C)Cc1cccc2ccccc12 -10.1%
CCOC(=O)c1c(C)[nH]c(C)c1S(=O)(=O)N1CCCC(C(=O)NCc2cccc(C)c2)C1 (stereo unspecified) 2.98%
CCN(CC)CCNC(=O)C1CCN(c2nn3cc(-c4ccc(F)cc4)nc3s2)CC1 7.1%
Cc1cccn2c(=O)c(C(=O)NCc3ccc(F)cc3)c(O)nc12 -13.2%
O=c1cc(-c2ccccc2)nc(SCc2nc(-c3ccccc3Cl)no2)[nH]1 -7.03%
FC1(F)C(F)(F)C(F)(F)C2(F)C(F)(F)C(F)(F)C(F)(F)C(F)(F)C2(F)C1(F)F (stereo unspecified) 1.29%
CCOc1cc(C(=O)Nc2cc3c(cc2N2CCOCC2)n(C)c(=O)n3C)cc(OCC)c1OCC -6.91%
CCCOc1cccc(C(=O)Nc2cccc3cccnc23)c1 28.6%
CCN(C(=O)c1nn(-c2ccc(OC)c(Cl)c2)c(=O)c2c1c1ccccc1n2C)c1cccc(C(F)(F)F)c1 -22.6%
O=C(CN1C(=O)COc2ccc(Cl)cc21)Nc1ccc(F)cc1 -22.6%
O=c1[nH]cnc2c1ncn2[C@H]1CC[C@@H](CO)O1 -5.74%
COc1ccc(-c2nc3ccc(NS(=O)(=O)c4ccc(C)cc4)cc3o2)cc1 -34.7%
CC(C)OCCCNC(=O)c1ccc(CSc2nc3cccnc3n2Cc2ccccc2)cc1 -29.8%
O=C(OCc1cc(=O)n2nc(-c3cccs3)sc2n1)c1ccc(Cl)cc1 6.9%
Cc1ccc(Cn2c(C(=O)NCc3ccccc3Cl)cc3sccc32)cc1 -21%
CCC1=C(c2ccc(C)cc2)S(=O)(=O)N=C1N1CCC(C(=O)Nc2ccccc2F)CC1 -28.3%
